{"source": "PubChem BioAssay AID1508642", "about": "(National Center for Advancing Translational Sciences (NCATS), 2021)", "note": "Among all 43,000 compounds or so, about 200 (0.47%) were called active. Inconclusive results (about 12%) are left out. Calls follow the shape of the dose curve; as a rule, active = well fitted cell-killing curve with a large enough effect; inconclusive = small, poorly fitted or top-dose-only effect, or effect the other way; inactive = flat fitted curve, though single readings scatter. This is one part of the list. % is scaled to controls: 0 for no effect and ±100 for the full control effect.", "data": [{"assay": "Cell viability qHTS assay in S16 Pmp22-F2sN cells; also: nearly all actives have a fitted effect of over 65% in size", "settings": "S16 Pmp22-F2sN Schwann cells (luciferase reporters placed in the Pmp22 gene) viability, CellTiter-Glo, 24 h; series mostly up to 57.5 µM; activity change, negative = cytotoxicity: at the top concentration", "outline": "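Seed 500-1,000 S16 Pmp22-F2sN cells per well in phenol-red-free DMEM with 10% heat-inactivated FBS; pin-add 23 nL compound; incubate 24 h at 37C; add CellTiter-Glo, wait 15 min protected from light; read luminescence.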", "values": [{"smiles": "CCCSCCCNC(=O)CN1C(=O)COc2ccc(S(=O)(=O)N3CCCC3)cc21", "activity change, negative = cytotoxicity": "inactive: -3.42%"}, {"smiles": "Cc1nc(-c2ccccc2)sc1CCNC(=O)C(=O)Nc1ccc(F)c(Cl)c1", "activity change, negative = cytotoxicity": "inactive: 17.8%"}, {"smiles": "NC(=O)c1ccccc1NC(=O)CN1c2ccccc2S(=O)(=O)c2ccccc21", "activity change, negative = cytotoxicity": "inactive: -8.23%"}, {"smiles": "CCOc1ccc(S(=O)(=O)Nc2cccc(OC)c2)c2cccnc12", "activity change, negative = cytotoxicity": "inactive: -8.04%"}, {"smiles": "O=C1CS(=O)(=O)C2(C(=O)N(Cc3ccccc3)c3ccccc32)N1c1ccc(F)c(Cl)c1", "note": "(stereo unspecified)", "activity change, negative = cytotoxicity": "inactive: 7.37%"}, {"smiles": "COc1cccc(-n2nnc(-c3nc(-c4cccs4)no3)c2N)c1", "activity change, negative = cytotoxicity": "inactive: 5.49%"}, {"smiles": "COc1ccc(NS(=O)(=O)c2ccc3[nH]c(=O)ccc3c2)cc1OC", "activity change, negative = cytotoxicity": "inactive: -6.43%"}, {"smiles": "COc1ccccc1C(=O)Oc1c(Sc2ccccc2)c(C)nn1-c1ccccc1", "activity change, negative = cytotoxicity": "inactive: -3.21%"}, {"smiles": "COc1ccc(S(=O)(=O)N(CC(=O)Nc2ccccc2Cl)Cc2ccccc2)cc1", "activity change, negative = cytotoxicity": "inactive: -10.4%"}, {"smiles": "Cc1ccc(CCNC(=O)CN2C(=O)COc3ccc(S(=O)(=O)N4CCCCCC4)cc32)cc1", "activity change, negative = cytotoxicity": "inactive: 4.19%"}, {"smiles": "COc1ccc(C(=O)CCC(=O)Nc2ccc(F)cc2F)cc1", "activity change, negative = cytotoxicity": "inactive: 0.0861%"}, {"smiles": "CCN(CC)C(=O)Cn1c(=O)n(Cc2ccc(C(=O)NCCCOC)cc2)c(=O)c2ccccc21", "activity change, negative = cytotoxicity": "inactive: -0.816%"}, {"smiles": "O=C(Nc1ccc(F)cc1F)c1cc(S(=O)(=O)N2CCCCC2)c[nH]1", "activity change, negative = cytotoxicity": "inactive: -18.2%"}, {"smiles": "Cc1ccc(C)c(N2C(=O)N(Cc3cccc(C(F)(F)F)c3)c3ccccc3S2(=O)=O)c1", "activity change, negative = cytotoxicity": "inactive: 7%"}, {"smiles": "NS(=O)(=O)c1ccc(NC(=O)COc2ccc(S(=O)(=O)NC3CCCCC3)cc2)cc1", "activity change, negative = cytotoxicity": "inactive: 17.5%"}, {"smiles": "CCOC(=O)CSc1nc2cc(OC)c(OC)cc2c2nc(-c3ccccc3)nn12", "activity change, negative = cytotoxicity": "inactive: 1.55%"}, {"smiles": "COC(=O)c1sccc1S(=O)(=O)N(CC(=O)NCc1ccc(C)cc1)c1ccc(C)c(C)c1", "activity change, negative = cytotoxicity": "inactive: -7.33%"}, {"smiles": "Cc1cc(NC(=O)c2cc(Cl)ccc2Cl)ccc1-c1cc2ccccc2oc1=O", "activity change, negative = cytotoxicity": "inactive: -2.45%"}, {"smiles": "CCOC(=O)C1=C(C)N=C2SCCC(=O)N2C1c1ccc(OCc2ccccc2)c(OC)c1", "note": "(stereo unspecified)", "activity change, negative = cytotoxicity": "inactive: 12.5%"}, {"smiles": "CC(=O)c1c(C)oc2c1cc(NS(=O)(=O)c1c(C)cc(C)cc1C)c1ccccc12", "activity change, negative = cytotoxicity": "inactive: 7.18%"}, {"smiles": "CCN(CC)CCCNC(=O)c1cn(CC(C)C)c(=O)c2c1c1ccccc1n2C", "activity change, negative = cytotoxicity": "inactive: 3.85%"}, {"smiles": "COc1ccc(-c2nnc(SCC(=O)N3CCc4ccccc43)o2)cc1OC", "activity change, negative = cytotoxicity": "inactive: -3.13%"}, {"smiles": "Cc1ccc2nc(-c3ccsc3)c(Nc3ccc(Cl)cc3)n2c1", "activity change, negative = cytotoxicity": "inactive: -4.83%"}, {"smiles": "Cc1cccc(-c2noc(-c3ccccc3OCC(=O)Nc3ccccc3[N+](=O)[O-])n2)c1", "activity change, negative = cytotoxicity": "inactive: 11.2%"}, {"smiles": "Cc1ccn2cc(CNC(=O)c3cccc(C(F)(F)F)c3)nc2c1", "activity change, negative = cytotoxicity": "inactive: 18.9%"}, {"smiles": "COc1ccc(OCC(=O)N(Cc2sccc2C)C2CCS(=O)(=O)C2)cc1", "note": "(stereo unspecified)", "activity change, negative = cytotoxicity": "inactive: -0.155%"}, {"smiles": "CC(=O)c1cccc(NC(=O)[C@H]2O[C@@H]3OC(C)(C)O[C@@H]3[C@H]3OC(C)(C)O[C@H]32)c1", "activity change, negative = cytotoxicity": "inactive: 11.2%"}, {"smiles": "COc1ccc(-c2nc3scc(CCNS(=O)(=O)c4ccc(Oc5ccccc5)cc4)n3n2)cc1", "activity change, negative = cytotoxicity": "inactive: -7.43%"}, {"smiles": "CCN(CC)c1ccc(C2C(C(=O)Nc3ccccc3C)=C(C)Nc3ncnn32)cc1", "note": "(stereo unspecified)", "activity change, negative = cytotoxicity": "inactive: -0.845%"}, {"smiles": "COC(=O)CCCCCn1c(-c2ccccc2)cn2c3c(=O)n(C)c(=O)n(C)c3nc12", "activity change, negative = cytotoxicity": "inactive: -6.91%"}, {"smiles": "O=C(NCc1ccccc1Cl)c1c2c(nc3ccccc13)C(=O)N(C1CCCCC1)C2", "activity change, negative = cytotoxicity": "inactive: -27.6%"}, {"smiles": "CCN(Cc1ccccc1)Cc1c(O)ccc2c(=O)c(-c3ccc(Cl)cc3)c(C(F)(F)F)oc12", "activity change, negative = cytotoxicity": "inactive: -0.237%"}, {"smiles": "COc1ccc(OC)c(C(=O)CSc2ncc3c(n2)-c2ccccc2N(Cc2ccccc2C)S3(=O)=O)c1", "activity change, negative = cytotoxicity": "inactive: -19.3%"}, {"smiles": "Cc1ccn2c(=O)cc(CSc3nnc(C)s3)nc2c1", "activity change, negative = cytotoxicity": "inactive: -5.31%"}, {"smiles": "Cc1cc2c(cc1NC(=O)c1ccccc1Cl)n(C)c(=O)c(=O)n2C", "activity change, negative = cytotoxicity": "inactive: 19.9%"}, {"smiles": "Cc1cccc(CCn2c(=O)c3ccccc3n(CC(=O)Nc3ccccc3F)c2=O)c1", "activity change, negative = cytotoxicity": "inactive: 24.7%"}, {"smiles": "COCCNC(=O)CCc1c(C)n(C)c2cc(-c3cc(OC)c(OC)c(OC)c3)nn2c1=O", "activity change, negative = cytotoxicity": "inactive: 18%"}, {"smiles": "CC1CCN(S(=O)(=O)c2ccc3nc(NCc4ccccc4)ccc3c2)CC1", "activity change, negative = cytotoxicity": "inactive: -29.3%"}, {"smiles": "COc1ccc(C(CNC(=O)c2oc3cc(C)c(Cl)cc3c2C)N2CCCCC2)cc1", "note": "(stereo unspecified)", "activity change, negative = cytotoxicity": "inactive: 4.49%"}, {"smiles": "Cn1c(=O)c(=O)n(C)c2cc(C(=O)NCc3ccccc3Cl)ccc21", "activity change, negative = cytotoxicity": "inactive: 4.35%"}, {"smiles": "COC(=O)c1scc(-c2ccc(C)cc2)c1S(=O)(=O)N1CCN(c2ccc(C)cc2C)CC1", "activity change, negative = cytotoxicity": "inactive: -1.13%"}, {"smiles": "COc1ccc(C(=O)NCc2ccc3c(c2)CCN3C(=O)c2ccccc2)cc1", "activity change, negative = cytotoxicity": "inactive: 3.67%"}, {"smiles": "CCc1ccc2oc(-c3ccc(NC(=O)c4cc5ccccc5o4)cc3)nc2c1", "activity change, negative = cytotoxicity": "inactive: 7.74%"}, {"smiles": "CCCNC(=O)CCCN1C(=O)CCn2nc(-c3cccn3C)cc21", "activity change, negative = cytotoxicity": "inactive: -5.64%"}, {"smiles": "COCCCNC(=O)c1sc2nc(C)c(C(=O)Nc3ccc(C)cc3C)c(-c3ccccc3Cl)c2c1N", "activity change, negative = cytotoxicity": "inactive: -29.1%"}, {"smiles": "COCCNC(=O)c1nn(-c2ccc(C)cc2)c(=O)n(C)c1=O", "activity change, negative = cytotoxicity": "inactive: -0.143%"}, {"smiles": "COc1ccc(NS(=O)(=O)c2ccc(-c3cnc(C4CC4)o3)cc2)cc1Cl", "activity change, negative = cytotoxicity": "inactive: -14.5%"}, {"smiles": "O=C(CCSCc1cnn(-c2ccccc2)c1-n1cccc1)NCc1ccccc1Cl", "activity change, negative = cytotoxicity": "inactive: -0.239%"}, {"smiles": "CCn1c(C(=O)NCc2ccccc2Br)cc2oc3ccccc3c21", "activity change, negative = cytotoxicity": "inactive: 5.35%"}, {"smiles": "CCCn1cnc2cc(NCc3ccccc3OCC)ccc21", "activity change, negative = cytotoxicity": "inactive: 2.92%"}, {"smiles": "COC(=O)c1ccc(C(=O)OC)c(NC(=O)c2cc3nc(-c4ccc(C)cc4)cc(C(F)(F)F)n3n2)c1", "activity change, negative = cytotoxicity": "inactive: 2.41%"}, {"smiles": "CCCNC(=O)Cn1c(=O)c2cccn2c2cccnc21", "activity change, negative = cytotoxicity": "inactive: 0.183%"}, {"smiles": "CCCNC(=O)C1Cc2cc(S(=O)(=O)N3CCCCCC3)ccc2N1C(C)=O", "note": "(stereo unspecified)", "activity change, negative = cytotoxicity": "inactive: 6.61%"}, {"smiles": "Cc1ccccc1OCc1nc2ccccc2n1Cc1ccccc1Cl", "activity change, negative = cytotoxicity": "inactive: 3.75%"}, {"smiles": "COc1ccc(C2=NS(=O)(=O)N(C)C(C(=O)N(C)Cc3ccccc3)=C2)cc1OC", "activity change, negative = cytotoxicity": "inactive: -5.68%"}, {"smiles": "CCS(=O)(=O)N1CCc2cc(C(=O)Nc3cccc(C(C)=O)c3)ccc21", "activity change, negative = cytotoxicity": "inactive: 0.112%"}, {"smiles": "CCCOc1cccc(C2c3c(-c4ccccc4O)n[nH]c3C(=O)N2Cc2ccco2)c1", "note": "(stereo unspecified)", "activity change, negative = cytotoxicity": "inactive: -1.94%"}, {"smiles": "CC(=O)c1ccc(NC(=O)CSc2cn(CC(=O)N(C(C)C)C(C)C)c3ccccc23)cc1", "activity change, negative = cytotoxicity": "inactive: -9.87%"}, {"smiles": "CCCCn1cc(S(=O)(=O)c2ccc(OC)cc2)c(=O)c2cc(F)c(N3CCOCC3)cc21", "activity change, negative = cytotoxicity": "inactive: -22.9%"}, {"smiles": "COc1ccc(CCNC(=O)CCc2c(C)nc3c4cccnc4nn3c2C)cc1OC", "activity change, negative = cytotoxicity": "inactive: -0.669%"}, {"smiles": "Cc1c(C(=O)OCC2CCCCC2)[nH]c2c1C(=O)CC(c1ccccc1Cl)C2", "note": "(stereo unspecified)", "activity change, negative = cytotoxicity": "inactive: -13.5%"}]}]}
